# Where “and” joins values, the source holds several entries; their conditions need not be identical. Equal values may be shown once. Inconclusive results, whose numbers are uncertain, are shown with a selection of clear calls. For some of these results: Where the call is inconclusive, the potency comes from a doubtful curve fit. More than one record can exist for a structure, and the calls need not agree. Calls of active or inactive are those of the source. Unless noted, calls follow the shape of the dose curve; as a rule, active = well fitted curve in the direction sought with a large enough effect in the repeat runs; inconclusive = weak or mixed curves; inactive = no such curve, though single readings can be large; an effect the other way counts as inactive or inconclusive.
# Legend:
# [1] = qHTS assay to identify small molecule antagonists of the androgen receptor (AR) signaling pathway using the MDA cell line in the presence of 0.5 nM R1881 - cell viability counter screen (AID 1259242); also: nearly all actives have a fitted effect of over 45% in size
# How it was run: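 Fluorescence from CellTiter-Fluor, which reports protease activity of live cells, was read 30 min after reagent addition to MDA-kb2 cells that had been incubated 16 hr with compound and 0.5 nM R1881.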
# [2] = qHTS assay to identify small molecule antagonists of the sonic hedgehog signaling (Shh) pathway (AID 1259369; calls by dose curve; also: nearly all actives have a fitted effect of over 45% in size)
# How it was run: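 Screening used 3T3Gli1-Luc cells at 2,000 per well, compounds delivered in DMSO, and conditioned medium as agonist stimulus; plates incubated 24hr at 37 C and 5% CO2 before a 30min luciferase step.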
# [3] = biological target: Estrogen receptor beta (Homo sapiens) (UniProt Q92731); experiment: qHTS assay to identify small molecule agonists of the estrogen receptor beta (ER-beta) signaling pathway (AID 1259377; active = well fitted activation curve with a large enough effect in the signal ratio in the repeat runs, not every such curve was filed as active; inconclusive = weak or mixed curves, or effect the other way; the % refers to the signal ratio); details: ER-beta-UAS-bla HEK293T, beta-lactamase FRET ratio, 16 h; activation: at 92.4 µM (top of the series) unless noted
# Chain of UniProt Q92731 (Q92731 whole entry, looked up, the tested form may be a part): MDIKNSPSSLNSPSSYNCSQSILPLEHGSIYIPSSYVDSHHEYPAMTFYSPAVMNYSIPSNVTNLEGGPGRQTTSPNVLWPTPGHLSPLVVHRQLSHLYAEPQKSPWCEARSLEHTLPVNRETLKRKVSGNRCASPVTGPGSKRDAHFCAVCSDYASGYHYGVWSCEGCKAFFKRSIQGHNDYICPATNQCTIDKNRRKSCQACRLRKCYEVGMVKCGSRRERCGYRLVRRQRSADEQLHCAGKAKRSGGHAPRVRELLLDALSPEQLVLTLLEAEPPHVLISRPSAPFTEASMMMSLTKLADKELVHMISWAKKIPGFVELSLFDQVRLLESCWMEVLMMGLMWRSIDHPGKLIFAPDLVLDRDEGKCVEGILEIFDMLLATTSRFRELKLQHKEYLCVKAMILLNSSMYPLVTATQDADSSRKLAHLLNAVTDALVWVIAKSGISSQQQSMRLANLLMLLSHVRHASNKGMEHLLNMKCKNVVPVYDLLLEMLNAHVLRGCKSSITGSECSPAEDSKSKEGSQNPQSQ
# How it was run: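 Agonist mode cell assay in GripTite HEK293T cells expressing an ER-beta fusion that drives beta-lactamase from an Upstream Activator Sequence; 16 hr compound exposure at 37C, then 2 h LiveBLAzer B/G FRET substrate at room temperature, fluorescence read-out.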
# [4] = biological target: Estrogen receptor beta (Homo sapiens) (UniProt Q92731); experiment: qHTS assay to identify small molecule antagonists of the estrogen receptor beta (ER-beta) signaling pathway (AID 1259378; active = well fitted inhibition curve with a large enough effect in the signal ratio in the repeat runs, not every such curve was filed as active; inconclusive = weak or mixed curves, or effect the other way; inactive = no such curve, though single readings can be large or run the other way; the % refers to the signal ratio; as to activity, negative = inhibition: % is scaled to controls: 0 for no effect and ±100 for the full control effect); details: ER-beta-UAS-bla HEK293T, beta-lactamase FRET ratio, 16 h; activity, negative = inhibition: at 92.4 µM (top of the series) unless noted
# How it was run: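 ER-beta-UAS-bla HEK293T (GripTite) cells in 2% charcoal-stripped FBS medium were preincubated 6 hr at 37C, dosed with compound, then stimulated with 1 nM E2 (final) for 16 hr; beta-lactamase reporter read by B/G FRET fluorescence after 2 hr substrate loading.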
# [5] = qHTS assay to identify small molecule antagonists of the estrogen receptor beta (ER-beta) signaling pathway - cell viability counter screen (AID 1259382); also: nearly all actives have a fitted effect of over 55% in size
# How it was run: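 Tox21 10K library tested in qHTS format on ER-beta-bla HEK293T cells stimulated with 1nM E2; 16 hr treatment at 37C. Same-well CellTiter-Glo luminescence served as the cell viability measure.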
# [6] = biological target: Estrogen receptor (Homo sapiens) (UniProt P03372); experiment: qHTS assay to identify small molecule agonists of the estrogen receptor alpha (ER-alpha) signaling pathway in the presence of an antagonist (AID 1259383; calls by dose curve; also: nearly all actives have a fitted effect of over 15% in size)
# Chain of UniProt P03372 (P03372 whole entry, looked up): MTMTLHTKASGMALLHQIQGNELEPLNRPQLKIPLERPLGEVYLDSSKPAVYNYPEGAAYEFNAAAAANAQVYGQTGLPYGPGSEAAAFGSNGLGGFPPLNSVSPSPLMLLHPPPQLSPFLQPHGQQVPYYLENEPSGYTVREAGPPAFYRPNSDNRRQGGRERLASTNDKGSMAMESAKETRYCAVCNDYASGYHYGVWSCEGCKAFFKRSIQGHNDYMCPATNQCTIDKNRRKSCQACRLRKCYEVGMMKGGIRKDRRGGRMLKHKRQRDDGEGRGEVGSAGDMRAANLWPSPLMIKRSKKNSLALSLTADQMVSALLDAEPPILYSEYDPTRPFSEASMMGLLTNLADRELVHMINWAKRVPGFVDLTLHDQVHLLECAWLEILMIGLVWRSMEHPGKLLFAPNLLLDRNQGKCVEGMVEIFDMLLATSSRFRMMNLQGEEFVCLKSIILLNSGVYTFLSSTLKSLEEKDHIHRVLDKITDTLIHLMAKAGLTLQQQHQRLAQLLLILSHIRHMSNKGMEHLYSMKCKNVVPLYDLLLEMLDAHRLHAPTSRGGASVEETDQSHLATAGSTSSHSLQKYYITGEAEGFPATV
# How it was run: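 In VM7Luc4E2 cells, 4,000 per well, compounds at 15 concentrations were co-incubated 22hr at 37C with 10.0nM final ICI-182,780. Luminescence from the stably transfected 4×ERE-luciferase reporter was recorded 30min after ONE-Glo addition.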
# [7] = biological target: Thyrotropin receptor (Homo sapiens) (UniProt P16473); experiment: qHTS assay to identify small molecule antagonists of the thyroid stimulating hormone receptor (TSHR) signaling pathway (AID 1259385; calls by dose curve; also: nearly all actives have a fitted effect of over 20% in size; as to activity change, negative = inhibition: % is scaled to controls: 0 for no effect and ±100 for the full control effect); details: TSHR-HEK293 cAMP HTRF, TSH-stimulated antagonist mode; activity change, negative = inhibition: at 92.4 µM (top of the series) unless noted
# Chain of UniProt P16473 (P16473 whole entry, looked up): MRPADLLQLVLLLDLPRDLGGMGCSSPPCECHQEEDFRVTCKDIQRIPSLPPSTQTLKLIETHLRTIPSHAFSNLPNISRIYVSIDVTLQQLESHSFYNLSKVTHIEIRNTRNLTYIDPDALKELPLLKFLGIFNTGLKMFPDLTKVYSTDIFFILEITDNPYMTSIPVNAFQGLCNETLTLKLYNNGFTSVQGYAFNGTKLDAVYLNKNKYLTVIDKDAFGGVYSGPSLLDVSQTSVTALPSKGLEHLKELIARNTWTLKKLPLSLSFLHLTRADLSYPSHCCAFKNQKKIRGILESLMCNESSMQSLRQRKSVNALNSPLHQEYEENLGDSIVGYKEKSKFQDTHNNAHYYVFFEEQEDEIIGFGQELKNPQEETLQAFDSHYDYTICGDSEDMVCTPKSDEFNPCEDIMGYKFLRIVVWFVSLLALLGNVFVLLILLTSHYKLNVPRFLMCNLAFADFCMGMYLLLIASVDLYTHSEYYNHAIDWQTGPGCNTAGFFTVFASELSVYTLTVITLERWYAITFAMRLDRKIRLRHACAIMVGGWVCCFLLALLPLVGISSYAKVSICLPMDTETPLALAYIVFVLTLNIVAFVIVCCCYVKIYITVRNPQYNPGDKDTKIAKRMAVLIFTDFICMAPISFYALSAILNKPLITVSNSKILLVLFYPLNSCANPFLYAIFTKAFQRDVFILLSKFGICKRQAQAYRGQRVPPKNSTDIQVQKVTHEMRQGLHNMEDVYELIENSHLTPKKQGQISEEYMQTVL
# How it was run: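 TSHR-HEK293 cells were plated and held 18 h at 37C/5% CO2, then given compound plus Ro20-1724 and stimulated with TSH at 1.5 ng/mL final. After 30 min at room temperature, cAMP was detected with cAMP-d2/anti-cAMP-cryptate (1 h) by fluorescence.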
# [8] = biological target: Estrogen receptor (Homo sapiens) (UniProt P03372); experiment: qHTS assay to identify small molecule antagonists of the estrogen receptor alpha (ER-alpha) signaling pathway using the BG1 cell line in the presence of 0.1 nM 17-beta-estradiol (AID 1259244); also: nearly all actives have a fitted effect of over 50% in size
# How it was run: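 Quantitative high-throughput screen in VM7Luc4E2 cells: compound plus 0.1 nM E2 (final), 22 h, 37C, 5% CO2; ONE-Glo added, 30 min room temperature, luminescence measured.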
# [9] = qHTS assay to identify small molecule agonists of the sonic hedgehog signaling (Shh) pathway - cell viability counter screen (AID 1259366); also: nearly all actives have a fitted effect of over 50% in size
# How it was run: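 Cells are plated at 2,000 per well and left 4hr at 37C, 5% CO2 before compound addition. After 23hr of treatment, CellTiter-Fluor reagent is added for 1hr at 37C and fluorescence is measured.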
# [10] = qHTS assay to identify small molecule antagonists of the sonic hedgehog signaling (Shh) pathway - cell viability counter screen (AID 1259367); also: nearly all actives have a fitted effect of over 55% in size
# How it was run: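 NIH/3T3-derived Gli1-Luc reporter cells (2,000 per well) rested 4 hr at 37 C, then received DMSO compounds plus conditioned medium. After 23 hr of treatment, CellTiter-Fluor was added for 1 hr at 37C and fluorescence read.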
# [11] = qHTS assay to identify small molecule agonists of the estrogen receptor beta (ER-beta) signaling pathway - cell viability counter screen (AID 1259380); also: nearly all actives have a fitted effect of over 30% in size
# How it was run: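 Viability of ER-beta-UAS-bla HEK293T cells was determined by CellTiter-Glo luminescence following 16 hr treatment with test compounds at 37C.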
# [12] = qHTS assay to identify small molecule phospholipidosis (PLD) inducers (AID 1259344; active = well fitted curve in the direction sought with a large enough effect; inconclusive = small, poorly fitted or top-dose-only effect, or another doubt; inactive = no such curve, though single readings can be large; an effect the other way counts as inactive or inconclusive)
# How it was run: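 HepG2 cells on collagen I, attached 4 h at 37 C, were co-treated with compound and LipidTOX Red dye for 24 h at 37 C, then fixed with paraformaldehyde plus Hoechst 33342 and imaged by high-content microscopy for phospholipid accumulation.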
# [13] = qHTS assay to identify small molecule agonists of the sonic hedgehog signaling (Shh) pathway (AID 1259368; calls by dose curve; also: nearly all actives have a fitted effect of over 15% in size)
# How it was run: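 Luminescent signal was taken as a measure of Gli1-controlled luciferase expression in stably transfected NIH/3T3-derived cells that had been treated for 24 hr with compounds delivered in DMSO.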
# [14] = biological target: Androgen receptor (Homo sapiens) (UniProt P10275); experiment: qHTS assay to identify small molecule agonists of the androgen receptor (AR) signaling pathway in the presence of an antagonist (AID 1259381; calls by dose curve; also: nearly all actives have a fitted effect of over 15% in size)
# Chain of UniProt P10275 (P10275 whole entry, looked up): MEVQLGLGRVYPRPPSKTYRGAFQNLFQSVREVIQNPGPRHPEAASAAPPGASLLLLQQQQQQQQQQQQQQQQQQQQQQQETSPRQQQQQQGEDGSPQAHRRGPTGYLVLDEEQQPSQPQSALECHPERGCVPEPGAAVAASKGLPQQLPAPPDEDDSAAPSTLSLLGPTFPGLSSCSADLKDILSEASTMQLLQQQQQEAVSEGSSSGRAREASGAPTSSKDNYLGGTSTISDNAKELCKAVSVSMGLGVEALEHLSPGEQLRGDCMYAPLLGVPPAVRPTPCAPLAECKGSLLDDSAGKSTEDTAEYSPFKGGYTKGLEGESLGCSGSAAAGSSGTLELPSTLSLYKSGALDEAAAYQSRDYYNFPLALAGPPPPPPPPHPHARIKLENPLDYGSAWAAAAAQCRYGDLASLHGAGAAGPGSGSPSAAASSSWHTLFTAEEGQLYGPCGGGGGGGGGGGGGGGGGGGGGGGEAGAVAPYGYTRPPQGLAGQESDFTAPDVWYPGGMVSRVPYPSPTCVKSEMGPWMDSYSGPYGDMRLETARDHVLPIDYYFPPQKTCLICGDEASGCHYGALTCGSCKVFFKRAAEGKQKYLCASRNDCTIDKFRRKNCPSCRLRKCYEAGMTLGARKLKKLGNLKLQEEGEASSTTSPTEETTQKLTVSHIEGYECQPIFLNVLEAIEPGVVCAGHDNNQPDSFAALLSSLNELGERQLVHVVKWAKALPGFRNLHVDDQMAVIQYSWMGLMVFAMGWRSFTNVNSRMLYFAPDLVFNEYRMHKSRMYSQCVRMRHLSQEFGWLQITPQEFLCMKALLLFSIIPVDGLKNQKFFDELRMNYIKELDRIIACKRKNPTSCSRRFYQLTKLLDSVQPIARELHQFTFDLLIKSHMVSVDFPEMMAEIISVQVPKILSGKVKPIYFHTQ
# How it was run: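 Here, 15-concentration compound series were pin-transferred onto MDA-kb2 MMTV-luciferase cells already dosed with nilutamide (3.0uM final). After 16hr at 37C, ONE-Glo was added and luminescence read 30min later at room temperature.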
# [15] = qHTS assay to identify small molecule HDAC inhibitors (AID 1259364); also: nearly all actives have a fitted effect of over 45% in size
# How it was run: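 Endogenous HDAC class I/II activity was measured in wild-type HCT-116 cells by HDAC-Glo luminescence after 2 h compound treatment.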
# [16] = qHTS assay to identify small molecule HDAC inhibitors - cell viability counter screen (AID 1259365); also: nearly all actives have a fitted effect of over 50% in size
# How it was run: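 Counter screen in wild-type HCT-116 cells: compounds dissolved in DMSO are pin-transferred onto overnight-plated cells and left 2hr at 37C. ATP-based CellTiter-Glo luminescence then measures viable cells.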
# [17] = qHTS assay to identify small molecule agonists of the estrogen receptor alpha (ER-alpha) signaling pathway in the presence of an antagonist - cell viability counter screen (AID 1259386);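 also: cells exposed to compounds for 22 h at 37 °C before the viability read; nearly all actives have a fitted effect of over 30% in size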
# How it was run: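 Fluorescent CellTiter-Fluor viability signal from VM7Luc4E2 cells, with the reagent added during the final hour of a 22hr compound exposure at 37C in the presence of 10.0nM ICI-182,780.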
# [18] = qHTS assay to identify small molecule agonists of the androgen receptor (AR) signaling pathway in the presence of an antagonist - cell viability counter screen (AID 1259379); also: nearly all actives have a fitted effect of over 25% in size
# How it was run: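 In MDA-kb2 cells (human breast carcinoma, MMTV-luciferase), compounds at 15 concentrations plus 3.0uM nilutamide; 16 hr, 37C, 0% CO2; CellTiter-Fluor fluorescence read for viability.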
# Potency is read from the fitted curve at half-maximal effect; tags tell the direction and shape of the fitted curve or compound fluorescence and quenching.
smiles,measurement,setting,value
C[n+]1cc2c3c(ccc2c2ccc4cc5c(cc4c21)OCO5)OCO3,Potency,[1],active: 10.3 µM
same,Potency,[2],"inconclusive: 3.66 µM [inhibitor, single point]"
same,Potency,[3],"inconclusive: 2.91 µM [rising, full curve]"
same,Potency,[4],inconclusive: 3.26 µM [full curve]
same,Potency,[5],active: 3.66 µM
same,Potency,[6],"inconclusive: 2.59 µM [activator, partial curve, poor fit]"
same,Potency,[7],inconclusive: 16.4 µM
Cc1ccc(C(C)(C)C)c(O)c1,Potency,[8],"inconclusive: 68.6 µM [inhibitor, single point]"
same,Potency,[9],"inconclusive: 66.4 µM [cytotoxic, partial curve, poor fit] and inconclusive: 48.6 µM [cytotoxic, partial curve, poor fit]"
same,Potency,[10],"inconclusive: 74.5 µM [cytotoxic, partial curve, poor fit] and inconclusive: 48.6 µM [cytotoxic, partial curve, poor fit]"
same,Potency,[2],"inconclusive: 59.1 µM [inhibitor, single point]"
same,Potency,[11],"inconclusive: 74.5 µM [cytotoxic, single point] and inconclusive: 77 µM [cytotoxic, single point]"
same,Potency,[5],"inconclusive: 59.1 µM [cytotoxic, partial curve, poor fit]"
same,"activity change, negative = inhibition",[7],inconclusive: -12.1%
C[C@H]1O[C@@H](O[C@H]2[C@@H](O)C[C@H](O[C@H]3[C@@H](O)C[C@H](O[C@H]4CC[C@@]5(C)[C@H](CC[C@@H]6[C@@H]5C[C@@H](O)[C@]5(C)[C@@H](C7=CC(=O)OC7)CC[C@]65O)C4)O[C@@H]3C)O[C@@H]2C)C[C@H](O)[C@@H]1O,Potency,[12],active: 11.2 µM
same,Potency,[13],"inconclusive: 48 µM [activator, partial curve, poor fit]"
same,Potency,[2],"inconclusive: 61.2 µM [inhibitor, partial curve, poor fit] and inconclusive: 42.8 µM [inhibitor, single point]"
same,Potency,[4],"inconclusive: 1.35 µM [fluorescent, full curve]"
same,"activity, negative = inhibition",[4],inconclusive: -18%
same,Potency,[14],"inconclusive: 0.303 µM [rising, partial curve]"
CCCCC(CC)COC(=O)c1ccc(O)cc1 (centres undefined),Potency,[15],"inconclusive: 27.2 µM [inhibitor, partial curve]"
same,Potency,[16],"inconclusive: 68.3 µM [cytotoxic, partial curve, poor fit]"
same,Potency,[9],"inconclusive: 60.9 µM [cytotoxic, partial curve]"
same,Potency,[10],"active: 54.3 µM and inconclusive: 54.5 µM [cytotoxic, partial curve]"
same,Potency,[2],"inconclusive: 30.5 µM [inhibitor, partial curve, poor fit]"
same,Potency,[3],"inconclusive: 68.3 µM [cytotoxic, single point]"
same,Potency,[4],active: 21.6 µM and active: 21.7 µM
same,Potency,[11],"inconclusive: 48.4 µM [cytotoxic, partial curve, poor fit]"
same,Potency,[5],"inconclusive: 30.5 µM [cytotoxic, partial curve] and active: 68.6 µM"
same,Potency,[7],"inconclusive: 13.6 µM [falling, single point]"
same,Potency,[17],"inconclusive: 68.3 µM [cytotoxic, single point] and inconclusive: 68.6 µM [cytotoxic, partial curve, poor fit]"
CC(C)c1ccc2sc3ccccc3c(=O)c2c1,Potency,[15],active: 1.72 µM
same,Potency,[16],"inconclusive: 48.6 µM [cytotoxic, partial curve]"
same,Potency,[13],"inconclusive: 6.86 µM [activator, partial curve, poor fit]"
same,Potency,[11],"inconclusive: 34.4 µM [cytotoxic, partial curve]"
same,Potency,[7],active: 54.5 µM
CC(C)=CCNc1ncnc2c1ncn2[C@@H]1O[C@H](CO)[C@@H](O)[C@H]1O,Potency,[8],"inconclusive: 3.35 µM [inhibitor, full curve]"
same,Potency,[10],"inconclusive: 21.1 µM [cytotoxic, partial curve]"
same,Potency,[4],"inconclusive: 5.96 µM [activator, partial curve]"
same,Potency,[11],active: 13.3 µM
same,Potency,[5],active: 11.9 µM
CN(C)C(=S)SC(=S)N(C)C,Potency,[15],"inconclusive: 24.3 µM [inhibitor, partial curve]"
same,Potency,[16],"inconclusive: 12.2 µM [rising, partial curve, poor fit]"
same,Potency,[10],active: 789 nM and active: 217 nM and active: 6.68 µM
same,Potency,[18],"inconclusive: 1.72 µM [cytotoxic, full curve]"
same,Potency,[5],"inconclusive: 994 nM [cytotoxic, full curve] and active: 1.37 µM and active: 1.88 µM"
CC1CCCNC1 (centres undefined),Potency,[8],"inconclusive: 75.3 µM [inhibitor, single point]"
same,Potency,[9],"inconclusive: 67.1 µM [cytotoxic, single point]"
same,"activity, negative = inhibition",[4],inconclusive: 37.4%
